Results: the RNAGym collection of RNA variant scans (doi:10.1093/nar/gkz1192)
Read counts are not given, so values of variants with three or more changes are uncertain.

B1: CPEB3 Ribozyme (parent)
chain: UAACAGGGGGCCACAGCAGAAGCGUUCACGUCGCAGCCCCUGUCAGAUUCUGGUGAAUCUGCGAAUUCUGCUGUAUAUCUC

Variants of: B1
Assay: self-cleavage, relative activity (ratio to wild type); higher = more cleavage; in vitro, sequencing
Outline: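 Relative activity was defined as the cleaved/total read fraction for a variant divided by the same fraction for the unmutated ribozyme. CPEB3 self-cleaving ribozyme libraries were made by rounds of error-prone PCR, barcoded, and transcribed in vitro with T7 RNA polymerase for 5 hours at 37°C, and cleavage ran through transcription plus a 15 min DNase I step before EDTA. Illumina sequencing of template-switched reverse transcripts gave the reads, and DNA sequencing mapped the barcodes. Averages come from three batches, using variants with at least 5 reads.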
UAACAGGGGGCCACAGCAGAAGCGUACAUGUCACAGCCCCUGUCAGAUUCCGGUGAAUCUGCGAAUUCUGCUGUAUAUCUC [U26A C29U G33A U51C] gave a self-cleavage of 0.07.
Work on UAACAGGGGGCCACAGCAGAAGCGUACACGUCGCGGCCCCUGUCAGAUUCUGGUGAAUCUGCGAAUUCUGCUGUAUAUCAC [U26A A35G U80A] yielded a self-cleavage of 1.27.
UAACAGGGGGCCACAGCAGAAGCGUACGCGUCGCGGCCCCUGUCAGAUUCUGGUGAAUCUGCGAAUUCUGUUGUAUAUCUC [U26A A28G A35G C71U] gave a self-cleavage of 0.34.
With UAACAGGGGGCCACAGCAGAAGCGUACACGUCGCAGCCCCUGUCAGAUUCUGGUGAAUCUGCGAUUUCUGCUGUAUAUCCC [U26A A65U U80C] the self-cleavage was 0.52.
For UAACAGGGGGCCACAGCAGAAGCGGUCACGUCGCAGCCCCUGUCAGAUUCUGGUGAAUCUGCGAAUUCAGCAGUAUAUCUC [U25G U69A U72A], the self-cleavage was 0.08.
In the case of UAACAGGGGGCCACAGCAGAAGCGUACGCGUCGCAGCCCCUGCCAGAUUCUGGCAAAUCAGGGAAUUCUGCUGUAUAUCUC [U26A A28G U43C U54C G55A U60A C62G], the self-cleavage is reported as 0.05.
With UAACAGGGGGCCACAGCAGAAGCGGUCACGUCGCAGCCCCUGUCAGAUUCUGGUGAAUCUGCGUAUCCUGCCGUAUAUCUC [U25G A64U U67C U72C] the self-cleavage was 0.24.
For UAACAGGGGGCCACAGCAGAAGCGGUCACGUCGCAGCCCCUGUCAGUUUUUGGUGAAUCUGCGAGUCCUGCCGUAUAUCCC [U25G A47U C50U A65G U67C U72C U80C], the self-cleavage was 0.06.
Work on UAACAGGGGGCCACAGCAGAAGCGGUCACGUCGCAGCCCCUGUCAGGUUCAGGUGAUUCUGCGAAUUCUGCCGUAUAUCUC [U25G A47G U51A A57U U72C] yielded a self-cleavage of 0.08.
For UAACAGGGGGCCACAGCAGAAGCGUACACGUCGCGGGCCCUGCCAGAUUCUGGUGAAUCUGCGGAUUCUGCUGUAUAUCUC [U26A A35G C37G U43C A64G], the self-cleavage was 0.12.
UAACAGGGGGCCACAGCAGAAGCGUACACGUCGCAGCCCCUGUCAGAUUCUGGUGAAUCUGCGCAUUCUGCUCUAUAUCUC [U26A A64C G73C] gave a self-cleavage of 0.25.
Variant UAACAGGGGGCCACAGCAGAAGCGUACACGUCGCAGACCCUGUCAGAUUCUGGUGACUCUGCGAAUUCUGCUGUACAUCUC [U26A C37A A57C U76C] has a self-cleavage of 0.07.
UAACAGGGGGCCACAGCAGAAGCGGUCACGUCGCAGCCCUUGUCAGAUUCUGGUGAAUCUGCGAGUUCUGCUGUAUACCAC [U25G C40U A65G U78C U80A] gave a self-cleavage of 0.05.
Work on UAACAGGGGGCCACAGCAGAAGCGGUCACACCGCAGCACCUGUCAGAUUCUGGUGAAUCUGCGAAUUCUGCUGUAUAUCCC [U25G G30A U31C C38A U80C] yielded a self-cleavage of 0.35.
For UAACAGGGGGCCACAGCAGAAGCGUACGCGUCCCAGCCCCUGUCAGACUCUGGUGAAUCCGCGUAUUCUGCUGUAUAUCUC [U26A A28G G33C U48C U60C A64U], the self-cleavage was 0.07.
UAACAGGGGGCCACAGCAGAAGCGUACACGUCGCAGCCCCUGUCAGAUUCUGGUGAGUCAGCGAUUUCUGCUGUAUAUCUC [U26A A57G U60A A65U] gave a self-cleavage of 0.17.
In the case of UAACAGGGGGCCACAGCAGAAGCGUACAAGUCGCAGUCCCUGUCUGAUACUGGUGAAUCUGCGAUUCCUGCUGUAUAUCUC [U26A C29A C37U A45U U49A A65U U67C], the self-cleavage is reported as 0.06.
UAACAGGGGGCCACAGCAGAAGCGCUCACGUCGCAGCCCCUGUCAGAUUCUGGUGAAUCUGCGAAUUCUGCUGCAUACCUC [U25C U74C U78C] showed a self-cleavage of 0.46.
UAACAGGGGGCCACAGCAGAAGCGGUCACGUCGCAGCCCCUGUCAGAUUCUGGUGAAUCCGCAAAUUCUGCUGUAUAUCUC [U25G U60C G63A] showed a self-cleavage of 0.16.
UAACAGGGGGCCACAGCAGAAGCGGUCACGUCGCAGCCCCCGUCAGAUUCUGGUGAGUCUGCGAAUUCUGCUGUAUAUCUC [U25G U41C A57G] showed a self-cleavage of 0.35.
UAACAGGGGGCCACAGCAGAAGCGUACACGUCGCAGCCCUUGUCAGAUUCAGGUGAAUCUGCGAAUUCGGCGGUAUAUCUC [U26A C40U U51A U69G U72G] gave a self-cleavage of 0.12.
With UAACAGGGGGCCACAGCAGAAGCGUACACGUCGCAGACCCUGUCAGAUCCUGGUGAAUCUGCGAAUUCUGCUGUAUAUCUC [U26A C37A U49C] the self-cleavage was 0.07.
With UAACAGGGGGCCACAGCAGAAGCGGUCGCGUCGCAGCCCCUGCCAGAUUCUGGUGAAACUGCGAAUUCUGCUGUAUACCUC [U25G A28G U43C U58A U78C] the self-cleavage was 0.17.
For UAACAGGGGGCCACAGCAGAAGCGUACACGUCGGAGCCCCCGUCAGAUUCUGGUGAAUCUGCGAAUUCUGCUGUAUAUCUC [U26A C34G U41C], the self-cleavage was 0.14.
UAACAGGGGGCCACAGCAGAAGCGUACACGUCGCGGCCCCCGUCAGAUUCUGGUGAAUCUGCGAAUUCUGCAGUAUAUCUC [U26A A35G U41C U72A] gave a self-cleavage of 1.1.
Variant UAACAGGGGGCCACAGCAGAAGCGCUCACGUCGCAGCCCCUGUCAGAUUCUGGUGAAUCUGCGAAUCCUGCUGUAUAUAUC [U25C U67C C79A] has a self-cleavage of 0.13.
UAACAGGGGGCCACAGCAGAAGCGUACACGUCGCGGCCCCUGUCAGAUUCUGGUGAAACUGCGAACUCUGCUGUAUAUCUC [U26A A35G U58A U66C] gave a self-cleavage of 0.58.
In the case of UAACAGGGGGCCACAGCAGAAGCGUACACGUAGCAGCCUCCGUCAGAUUCUGGUGAAUCUGCGAAUUCUGCUGUAUACCUC [U26A C32A C39U U41C U78C], the self-cleavage is reported as 0.07.
UAACAGGGGGCCACAGCAGAAGCGUACACGUCGCAGGCCCUGUCAGACUCUGGUGAAUCUGCGAAUUCUGCUGUAUAUCCC [U26A C37G U48C U80C] showed a self-cleavage of 0.3.
In the case of UAACAGGGGGCCACAGCAGAAGCGUACACGUCGCCGCCCCUGUCAGAUUCCGGUGAAUCUGCGAAUUCCGCUGUAUAUCUC [U26A A35C U51C U69C], the self-cleavage is reported as 0.21.
Variant UAACAGGGGGCCACAGCAGAAGCGUACACGUCGCAGCCCCUGUCAGAUUCUGGUGGAUCUGCGAGUUCUGCUGUAUAUCUC [U26A A56G A65G] has a self-cleavage of 0.18.
UAACAGGGGGCCACAGCAGAAGCGUACACGUCGCAGCCCCUGUUAGAUUCUGAUGAGUCUGCGAAUUCUGCUGUAUAUCUC [U26A C44U G53A A57G] gave a self-cleavage of 0.5.
For UAACAGGGGGCCACAGCAGAAGCGGUCGCGUCGCAGCCCCUGUCAGAUUCUGGUGUAUCUGCGAAUUCAGCUGUAUAUCUC [U25G A28G A56U U69A], the self-cleavage was 0.03.
UAACAGGGGGCCACAGCAGAAGCGUACACGUCGCUGCCCCUGUCAGAUCCCGGUGAAUCUGCGAAUUCUGCUGUAUAUCUC [U26A A35U U49C U51C] showed a self-cleavage of 0.06.
